PubChem BioAssay AID485294 (National Center for Advancing Translational Sciences (NCATS), 2010)
In all, about 370,000 compounds went through this assay and about 150 (0.041%) were called active. The inconclusive results got no clear call from the source; some entries with a clear call stand among them for comparison. The call rests on the fitted dose curve; in most records, active means well fitted inhibition curve with a large enough effect; inconclusive means small, poorly fitted or top-dose-only effect; inactive means flat fitted curve, though single readings scatter. No potency is given beside an inconclusive call; the fits are too rough.
Further: nearly all actives have a fitted effect of over 25% in size.
Potency means the concentration at half of the fitted maximal effect; tags describe the fitted curve by direction and shape.

The compounds below were run against Beta-lactamase (Escherichia coli (strain K12)) (UniProt P00811) (assay: qHTS Inhibitors of AmpC Beta-Lactamase (assay with detergent)). Settings: AmpC hydrolysis of nitrocefin, absorbance 480 nm, 0.01% Triton; series mostly up to 114 µM.
Sequence of UniProt P00811 (P00811 whole entry, looked up): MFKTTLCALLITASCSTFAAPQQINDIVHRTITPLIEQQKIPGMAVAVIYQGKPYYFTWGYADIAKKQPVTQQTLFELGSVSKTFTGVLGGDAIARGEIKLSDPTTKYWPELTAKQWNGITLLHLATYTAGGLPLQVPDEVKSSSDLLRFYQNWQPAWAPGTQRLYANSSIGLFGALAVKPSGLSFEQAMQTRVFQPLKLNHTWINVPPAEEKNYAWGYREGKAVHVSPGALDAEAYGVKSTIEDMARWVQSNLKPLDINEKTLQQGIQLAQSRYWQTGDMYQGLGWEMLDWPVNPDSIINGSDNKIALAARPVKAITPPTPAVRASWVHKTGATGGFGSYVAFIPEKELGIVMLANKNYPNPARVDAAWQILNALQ
In short: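 AmpC (5.3 nM in the dispensed reagent) in 20 mM phosphate pH 7.0 with 0.01% (detergent screen) or 0.0001% Triton X-100 was preincubated with compounds for 15 min at room temperature. Nitrocefin was then added from an 800 uM solution, and hydrolysis was followed at 480 nm.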
With `C=CCN(c1ccc(C(=O)NCCN2CCOCC2)cc1)S(C)(=O)=O` the Potency was inconclusive [inhibitor, full curve, poor fit].
For `CC1(C)CC(=O)C=C(Nc2ccc(Br)cc2F)C1`, the Potency was inconclusive [inhibitor, full curve, poor fit].
For `N#Cc1c(-c2ccc(F)cc2)cc(-c2cccnc2)nc1N`, the Potency was inconclusive [inhibitor, full curve, poor fit].
`Cc1cc(Cl)ccc1OCC(=O)NCCCCc1ccccc1` was tested, and the Potency was inconclusive [inhibitor, partial curve, poor fit].
For `COC(=O)c1cc(Br)c(=O)n(Cc2ccco2)c1`, the Potency was inconclusive [inhibitor, partial curve, poor fit].
For `Cc1cnc(=O)[nH]c1SCc1ccccc1F`, the Potency was inconclusive [inhibitor, full curve].
With `CCCc1nc2sc3c(SCC(=O)NCc4ccco4)ncnc3c2c2c1CCC2` the Potency was inconclusive [inhibitor, partial curve, poor fit].
In the case of `O=C(Oc1c(CN2CCOCC2)cc(Cl)c2cccnc12)c1ccccc1`, the Potency is reported as inconclusive [inhibitor, single point].
For `CC(C)(C)OC(=O)CNC(=O)c1[nH]cnc1C(=O)N[C@@H](Cc1ccccc1)C(=O)OCc1ccccc1`, the Potency was inconclusive [inhibitor, full curve, poor fit].
`COc1ccc(C(=O)NCC(=O)NCC(=O)OCc2ccc(Br)cc2)cc1` was tested, and the Potency was “inactive”.
With `NC(C(=O)O)C1CC(Cl)=NO1` (configuration not stated) the Potency was “inactive”.
In the case of `CC(NC(=O)Cc1ccc(-c2ccccc2)cc1)c1ccccc1` (configuration not stated), the Potency is reported as inconclusive [inhibitor, full curve, poor fit].
For `Cc1ccc(NS(=O)(=O)c2cn(C)c(=O)n(C)c2=O)c(C)c1`, the Potency was inconclusive [inhibitor, full curve, poor fit].
`O=C(NCc1ccccc1)c1nc(-c2cccs2)no1` was tested, and the Potency was inconclusive [inhibitor, single point].
With `Cc1ccccc1NC(=O)Cc1c[nH]c2ccccc12` the Potency was inconclusive [inhibitor, partial curve, poor fit].
`Cc1nnc2n(-c3ccccc3)c(=O)c3c4c(sc3n12)COC(C(C)C)C4` (configuration not stated) was tested, and the Potency was inconclusive [inhibitor, full curve, poor fit].
`COc1cccc(C(=O)Nc2nnc(S(=O)(=O)Nc3cccc(C)c3)s2)c1` was tested, and the Potency was inconclusive [inhibitor, full curve, poor fit].
